From patent publication US20240124563A1 (NANJING ZAIMING PHARMACEUTICAL, published 2024)

Columns and labels:
[1] = target: T1, chimeric human MSLN-R3 / chicken MSLN-R1-2 protein on HEK293T cells (clone A5) (chicken; human); assay: FACS, HEK293T-hR3/chickR1-2-A5 cells, antibody 0.2 nM
T1 construct: range 327-514; Human R1-R2 replaced by chicken R1-R2; also called HEK293T-chickR1-2/hR3-A5; HEK293T-hR3/chickR1-2-A5

[2] = target: T2, human MSLN protein endogenously expressed on tumor cells (Hela, OVCAR3) (human, UniProt Q13421 296-598); assay: FACS, OVCAR3 cells, antibody 2 nM
T2 construct: whole, on cells

[3] = target: T3, human MSLN full-length protein, recombinant, on CHO-K1 or HEK293T cells (human, UniProt Q13421 296-598); assay: FACS, CHO-K1-hMSLN-2C8 cells
T3 construct: The background says that the precursor is cleaved by furin to the mature membrane form; also called hMSLN; CHO-K1-hMSLN-2C8

[4] = target: T4, human MSLN-FL-his protein (human, UniProt Q13421 296-580); assay: SPR, antibody captured on Protein A chip, MSLN-FL-his injected, 1:1 model
T4 construct: Made in HEK293E cells, purified on nickel column; also called hMSLN-FL-his; not shown: histidine tag

[5] = target: T2, human MSLN protein endogenously …; assay: FACS, Hela cells
[6] = target: T3, human MSLN full-length protein, …; assay: competitive FACS on CHO-K1-human MSLN-2C8 cells vs Biotin-Tab142; competitor at 20 nM
[7] = target: T3, human MSLN full-length protein, …; assay: competitive FACS on CHO-K1-human MSLN-2C8 cells vs Biotin-Tab142; competitor at 100 nM
[8] = target: T3, human MSLN full-length protein, …; assay: competitive FACS on CHO-K1-human MSLN-2C8 cells vs Biotin-Tab142; competitor at 0.032 nM
[9] = target: T3, human MSLN full-length protein, …; assay: competitive FACS on CHO-K1-human MSLN-2C8 cells vs Biotin-Tab142; competitor at 0.00128 nM
[10] = target: T3, human MSLN full-length protein, …; assay: competitive FACS on CHO-K1-human MSLN-2C8 cells vs Biotin-Tab142; competitor at 0.0064 nM
[11] = target: T3, human MSLN full-length protein, …; assay: competitive FACS on CHO-K1-human MSLN-2C8 cells vs Biotin-Tab142; competitor at 0.16 nM
[12] = target: T3, human MSLN full-length protein, …; assay: competitive FACS on CHO-K1-human MSLN-2C8 cells vs Biotin-Tab142; competitor at 4 nM
[13] = target: T2, human MSLN protein endogenously …; assay: FACS, OVCAR3 cells, antibody 0.2 nM
[14] = target: T3, human MSLN full-length protein, …; assay: FACS, HEK293T-hMSLN-B8 cells, antibody 0.2 nM
[15] = target: T2, human MSLN protein endogenously …; assay: FACS, OVCAR3 cells, antibody 20 nM
[16] = target: T3, human MSLN full-length protein, …; assay: competitive FACS on CHO-K1-human MSLN-2C8 cells vs Biotin-Tab142; competitor at 0.8 nM
[17] = target: T3, human MSLN full-length protein, …; assay: FACS, HEK293T-hMSLN-B8 cells, antibody 20 nM
[18] = target: T1, chimeric human MSLN-R3 / chicken …; assay: FACS, HEK293T-hR3/chickR1-2-A5 cells, antibody 20 nM
[19] = target: T3, human MSLN full-length protein, …; assay: FACS, HEK293T-hMSLN-B8 cells
[20] = target: T2, human MSLN protein endogenously …; assay: FACS, OVCAR3 cells
[21] = target: T1, chimeric human MSLN-R3 / chicken …; assay: FACS, HEK293T-chickR1-2/hR3-A5 cells

B1: NB149-81 VHH-hFc (Fc fusion)
chain: EVQLVESGGGLVQAGGALRLSCAASERTFSSSSMGWFRQAPGKEREFVAAINRIGGHIYYADSVKGRFTISKDNAKNTVYLQMSSLKPEDTAVYYCASSRIYSHSARDYDYWGQGTQVTVSS[human IgG1 Fc with changes not written out]
B1 gave an MFI [1] of 71, an MFI [2] of 4640 and an EC50 [3] of 2.2 nM. For the same binder, the “Max MFI” value [3] was 11700, the Kd [4] was 0.533 nM and the koff [4] was 0.000579 s⁻¹. The kon [4] was 1.09e+06 M⁻¹ s⁻¹, the EC50 [5] was 0.3 nM and the “Max MFI” value [5] was 348. The “MFI of Biotin-Tab142” value [6] was 25100, the “MFI of Biotin-Tab142” value [7] was 16400 and the “MFI of Biotin-Tab142” value [8] was 42400. For the same binder, the “MFI of Biotin-Tab142” value [9] was 41200, the “MFI of Biotin-Tab142” value [10] was 43600 and the “MFI of Biotin-Tab142” value [11] was 41800. The “MFI of Biotin-Tab142” value [12] was 33900, the MFI [13] was 883 and the MFI [14] was 1330. For the same binder, the MFI [15] was 10900, the “MFI of Biotin-Tab142” value [16] was 39600 and the MFI [17] was 23400. It also gave an MFI [18] of 74.

B2: NB149-97 VHH-hFc (Fc fusion)
chain: EVQVVESGGGLVQAGGGLRLSCAASERTFSSSSIGWFRQAPGKEREFVATMNRIGGHTFYADPVKGRFTISRDNAANTVYLQMSSLKPEDAAVYYCASSRIYSHSPRDYDYWSQGTQVTVSS[human IgG1 Fc with changes not written out]
Binder B2 has an MFI [2] of 5760, a Kd [4] of 0.184 nM and a koff [4] of 0.000174 s⁻¹. For the same binder, the kon [4] was 945000 M⁻¹ s⁻¹, the EC50 [19] was 4 nM and the MFI [13] was 1200. The EC50 [20] was 3.54 nM and the MFI [15] was 11600.

B3: Tab108 (YP218, scFv-hIgG1 Fc) (Fc fusion)
chain: QQQLEESGGGLVKPEGSLTLTCKASGFDLGFYFYACWVRQAPGKGLEWIACIYTAGSGSTYYASWAKGRFTISKASSTTVTLQMTSLAAADTATYFCARSTANTRSTYYLNLWGPGTLVTVSSGGGGSGGGGSGGGGSDVVMTQTPASVSEPVGGTVTIKCQASQRISSYLSWYQQKPGQRPKLLIFGASTLASGVPSRFKGSGSGTEYTLTISDLECADAATYYCQSYAYFDSNNWHAFGGGTEVVV[human IgG1 Fc with changes not written out]
notes: also called YP218 scFv-human IgG1 Fc (hFc) antibody
Binder B3 has an EC50 [21] of about 4.62 nM.
